Measured values as given in PubChem BioAssay AID1159614 (National Center for Advancing Translational Sciences (NCATS), 2016).
Among all 45,000 compounds or so, about 65 (0.1%) were called active. Calls follow the shape of the dose curve; as a rule, active = well fitted activation curve with a large enough effect; inconclusive = small, poorly fitted or top-dose-only effect; inactive = no such curve, though single readings can be large or run the other way. The list shows a part of the results.

molecular target: Galactocerebrosidase (Homo sapiens) (UniProt P54803); assay: A Novel Cell-Based Assay to Identify Small Molecules for B -Galactocerebrosidase; details: 145M-Twi-hGALC-G270D cells (Twitcher mouse brain line with human GALC G270D), HMU-beta-Gal fluorescence, 48 h; series mostly up to 57.5 µM; activation: at the top concentration; also: 0% is about no effect; nearly all actives have a fitted effect of over 65% in size
Chain of UniProt P54803 (P54803 whole entry, looked up): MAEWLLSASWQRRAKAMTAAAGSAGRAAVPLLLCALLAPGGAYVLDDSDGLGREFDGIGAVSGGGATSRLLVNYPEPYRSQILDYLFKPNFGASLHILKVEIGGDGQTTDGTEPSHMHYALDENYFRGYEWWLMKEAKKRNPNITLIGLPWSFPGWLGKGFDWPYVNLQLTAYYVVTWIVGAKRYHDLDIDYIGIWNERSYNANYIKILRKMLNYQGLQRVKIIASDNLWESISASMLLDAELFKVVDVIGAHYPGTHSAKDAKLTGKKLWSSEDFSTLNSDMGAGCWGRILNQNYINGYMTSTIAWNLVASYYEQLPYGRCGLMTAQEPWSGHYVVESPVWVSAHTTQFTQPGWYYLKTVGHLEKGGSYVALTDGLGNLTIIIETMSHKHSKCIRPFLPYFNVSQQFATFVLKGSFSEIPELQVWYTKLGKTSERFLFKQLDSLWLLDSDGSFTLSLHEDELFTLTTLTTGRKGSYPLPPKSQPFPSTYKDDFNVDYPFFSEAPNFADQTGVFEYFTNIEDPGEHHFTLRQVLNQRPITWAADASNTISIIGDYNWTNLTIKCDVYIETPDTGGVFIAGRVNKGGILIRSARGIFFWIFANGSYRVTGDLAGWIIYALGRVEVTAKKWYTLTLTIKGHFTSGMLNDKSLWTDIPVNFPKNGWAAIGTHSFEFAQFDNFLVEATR
Outline: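 Mutant human GALC (G270D), stably expressed in a Twitcher mouse brain cell line lacking endogenous GALC, is measured in live-treated cells via 6-hexadecanoylamino-4-methylumbelliferyl-β-galactoside hydrolysis (0.1 mM final, pH 5.2) with fluorescent detection.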

activation, inactive:
Cc1cc(OCC(O)CN2CCN(c3cccc(Cl)c3)CC2)ccc1Cl (stereo unspecified) -7.51%
Cc1oc2ncn(C)c(=O)c2c1C(=O)NCc1ccc(Cl)cc1 -8.17%
COc1ccc(-c2nc(Cn3c(SCc4cccc(C(F)(F)F)c4)nc4cccnc43)c(C)o2)cc1OC -10.4%
COc1ccc(C(=O)c2sc3nc(-c4ccc(F)cc4)ccc3c2N)cc1 -13.7%
CC1=C(C(=O)Nc2ccc(C)cc2C)C(c2ccc(O)cc2)n2nc(SCC(=O)c3ccc(C)cc3)nc2N1 (stereo unspecified) -8.39%
Cn1c(Nc2ccc(Cl)cc2)cc(=O)n(C)c1=O -19.2%
CCc1nnc2c(Nc3ccc(N(CC)CC)cc3C)nc3ccccc3n12 3.32%
Cc1ccc(S(=O)(=O)NCc2nc3cccnc3n2Cc2ccccc2Cl)c(C)c1 -7.25%
COc1cccc(NS(=O)(=O)c2ccc3c(c2)N(C)C(=O)CC(=O)N3C)c1 -10.4%
COc1ccc(C)cc1NC(=O)c1cn(C)c(=O)c2cc(OC)c(OC)cc12 -10.6%
Cc1cc(S(=O)(=O)Nc2ccc(C(=O)O)cc2)c(C)c(S(=O)(=O)c2ccc(Cl)cc2)c1 -10%
CC(C)Cc1nn2c(=O)cc(COC(=O)c3ccccc3NC(=O)C3CCCCC3)nc2s1 -22.1%
CCCc1nn2c(=O)cc(COC(=O)c3ccc(NC(=O)C4CCCCC4)cc3)nc2s1 -18.9%
CC(=O)c1ccccc1OCC(O)Cn1c(CO)nc2ccccc21 (stereo unspecified) -9.78%
CC(=O)c1ccc(NC(=O)c2nc(-c3ccccc3)n(-c3ccccc3)n2)cc1 -23%
O=C(Nc1ccc(Br)cc1F)N1CC=C(c2c[nH]c3ccccc23)CC1 -14.8%
CCc1ccccc1NC(=O)N1CC(C)Sc2ccccc21 (stereo unspecified) -2.8%
COc1ccccc1NC(=O)CN1C(=O)c2ccccc2Sc2ccc(C(=O)N3CCCC3)cc21 -6.71%
Cn1c(=O)c2sccc2n2c(CCCC(=O)NC3CCCCC3)nnc12 -14.6%
Cn1c(=O)oc2cc(S(=O)(=O)CCC(=O)NCCc3ccc(Cl)cc3)ccc21 -26.6%
CC(C)(C)OC(=O)N1CCC(c2c(C(=O)N3CCCCC3)cnn2-c2ccccc2Cl)CC1 -4.69%
CCn1cc(C(=O)O)c(=O)c2cc(F)c(N3CCNCC3)cc21 -0.723%
COc1ccccc1OCc1nc(C#N)c(NCc2ccc(C)cc2)o1 -13.1%
COc1ccc(-c2nn(-c3ccccc3)cc2C2NC(=O)NC(C)=C2C(=O)OC(C)C)cc1Cl (stereo unspecified) -25.8%
Cc1ccc(Cl)cc1N1CCN(S(=O)(=O)c2cc(Br)cc3c2N(C(=O)C2CC2)CC3)CC1 5.69%
CC(C)c1ccc(NS(=O)(=O)c2ccc3[nH]cc(C(=O)NCCc4ccccc4)c(=O)c3c2)cc1 -25.6%
CCOC(=O)c1cc(-c2ccc(F)cc2)n(CCC(=O)Nc2nc3ccc(OC)cc3s2)c1C -0.167%
CCOC(=O)CC(NC(=O)CCc1c(C)nc2c(c1C)c(=O)n(C)c(=O)n2C)c1ccc(OCC)c(OC)c1 (stereo unspecified) 12.9%
CC(=O)Nc1ccc(NC(=O)C(Cc2ccccc2)NS(=O)(=O)c2ccc3c(c2)oc(=O)n3C)cc1 (stereo unspecified) -13.5%
CCOc1cc(-c2ccc(OC(=O)c3ccc(OC)cc3)c(OC)c2)cc(=O)c2c(C)oc(C)c12 -15.9%
CCn1nc(C)c2c(-c3ccccc3)cc(=O)n(C(C)C(=O)NCCc3ccc(OC)c(OC)c3)c21 (stereo unspecified) -16.2%
Cc1ccc(-n2nc(C)c3c(C)cc(=O)n(CC(=O)NC(C)c4ccccc4)c32)cc1 (stereo unspecified) -11%
O=S(=O)(c1ccc(Cl)cc1)c1nnn2c1nc(NCc1ccc3c(c1)OCO3)c1sccc12 -9.33%
Cc1ccc(N=C2NC(=O)CC(C(=O)Nc3cc(C(F)(F)F)ccc3Cl)S2)cc1 (stereo unspecified) -3.02%
Cc1ccc(N(CC(=O)Nc2cc(C)ccc2C)S(=O)(=O)c2c(C)noc2C)cc1 -10.1%
CCS(=O)(=O)c1ncc(Cl)c(C(=O)Nc2ccccc2)n1 -10.8%
Cc1ccc(COC(=O)c2[nH]c3c(c2C)C(=O)CC(c2ccc(N(C)C)cc2)C3)cc1 (stereo unspecified) -18.2%
CC(=O)c1ccc(NC(=O)c2ccc(-n3cnnc3)cc2)cc1 -12.8%
CCC(=O)N1c2ccccc2CC1C(=O)NCc1ccc(N(C)C)cc1 (stereo unspecified) -5.03%
CCCCN(CC)CCNC(=O)C1CCCN(c2ncnc3onc(C)c23)C1 (stereo unspecified) -5.12%
COc1ccc(-n2c(SCC(=O)c3ccccc3)nc3c([nH]c4ccccc43)c2=O)cc1 -8.16%
COc1cc(Cl)c(NS(=O)(=O)c2cc(-c3cc(C)no3)ccc2OC)c(OC)c1 -14.7%
CCOc1ccccc1NC(=O)C1CCN(S(=O)(=O)c2ccc3c(c2)CCCN3C(C)=O)CC1 -11.9%
CC(=O)c1cccc(NS(=O)(=O)c2cc(-c3cnc(C4CC4)o3)ccc2C)c1 -31.7%
Cc1ccc(CSCCC(=O)NCc2ccc(F)cc2Cl)cc1 -4.52%
O=c1oc2c3c(ccc2c2ccccc12)OCN(Cc1ccccc1Cl)C3 -5.2%
O=S(=O)(NCC(c1ccco1)S(=O)(=O)c1cccs1)c1ccc(Cl)cc1 (stereo unspecified) -21%
CN(Cc1ccccc1)c1ncnc2c1nnn2C -17.7%
CCOc1ccc(C(=O)c2oc3ccccc3c2NC(=O)c2cc(-c3ccc(Cl)cc3)on2)cc1 3.35%
COc1ccc(-c2nnc(SCC(=O)N(C)C3CCCCC3)o2)cc1OC -17%
COC(=O)c1sccc1S(=O)(=O)N(CC(=O)Nc1ccccc1F)c1ccccc1 -24.5%
Cc1ccc(NC(=O)Nc2ccccc2OCc2cc(=O)n3ccccc3n2)c(Cl)c1 -2.25%
O=C(CCCCn1c(=O)c2ccccc2n(CC(=O)Nc2ccc(F)cc2F)c1=O)NCCc1ccccc1 -10.5%
COC(=O)c1c(NC(=O)Cc2coc3ccc(C(C)C)cc23)sc2c1CCC2 -2.09%
Cc1ccc(C(=O)NCCc2ccc(S(N)(=O)=O)cc2)cc1-n1cnc2cccnc21 -5.04%
Cc1cccc(C(=O)n2nc(-c3cccnc3)nc2NCc2ccccc2)c1 -18.9%
CCn1cc(C(=O)NCCCOC)c(=O)c2cc(S(=O)(=O)N3CCCC3)ccc21 -15.1%
Cc1nc(-c2ccccc2)sc1CCNS(=O)(=O)c1ccc(Br)cc1 -37.4%
CCNC(=O)Cc1ccc(NC(=O)N2CCCCc3ccccc32)cc1 -15.2%
CCN(CC)c1nn2c(=O)c(C(=O)NCc3ccc(F)cc3)cnc2s1 -13.8%
CCCn1c2ccccc2c2cnn(CC(=O)NCCc3ccc(OC)cc3OC)c(=O)c21 0.398%
